# Measurements published in the supplement of paper PMC3334620.
# The full ranking holds about 33,000 sequences; the median of “E-score (-0.5 to 0.5)” is about -0.01, and the highest 2% start at about 0.26. Some of the results follow.
# Biological target: Ste12 (UniProt P13574)
# Assay: PBM E-score (8-mer binding enrichment) (E-score (-0.5 to 0.5)); higher = stronger / more preferred TF binding; most listed sequences are background and not binding sites
# Conditions: protein concentration: 200 nM; construct: GST-DNA-binding domain
# Summary of the method: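 GST-tagged yeast TFs (full-length or DNA-binding domain) were made by PURExpress in vitro transcription/translation and applied at about 100-200 nM to universal all-10-mer Agilent arrays. The arrays were made double-stranded by primer extension, on fresh or once-stripped slides. Bound protein was detected with fluorescent anti-GST, and scans were normalised with masliner. Each ungapped eight-base word, pooled with its reverse complement, received an E-score (modified Wilcoxon-Mann-Whitney statistic) from the Universal PBM Analysis Suite.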
row,Sequence,PBM E-score
1,ATGAATCA,0.177
2,GACAAGTC,-0.249
3,ATTACAAG,0.082
4,CACGGGGA,-0.0574
5,GCTAATAC,0.0435
6,CTCTTCCA,-0.174
7,ACATTATA,0.125
8,CCCTTTCA,0.0514
9,GTGGCCTA,-0.119
10,GGTTACGA,-0.166
11,ATGGGGTG,0.222
12,ATTAAGGC,0.045
13,CACTTTAC,0.143
14,CTAATCAA,0.15
15,CGTCTAAC,-0.119
16,AGGACGCC,-0.239
17,CAGCGAAA,-0.118
18,GCCTGGAA,0.0491
19,ACATGTAG,0.13
20,CAAACCAA,0.205
21,ATATAGCA,-0.0255
22,ACACGCGG,-0.0112
23,GCTACACC,-0.00127
24,AAGATTAC,0.0371
25,ACCTGAGG,-0.204

row,Sequence,PBM E-score
1,GCGATAGA,-0.0219
2,ATCGTTGG,-0.0687
3,AAGTATCA,0.112
4,ATATGCAC,-0.0918
5,AGGTGGTC,-0.125
6,GTTACCCA,-0.132
7,GATCGGAC,-0.08
8,AGCTAACC,-0.247
9,ACTGATAT,0.0139
10,ACACAAAT,0.108
11,AAGCATGG,-9e-05
12,AACACGAG,-0.0416
13,CCGCAGAG,-0.315
14,ATGATGCA,0.0409
15,ATTGCATA,0.0558
16,CGATAACA,0.171
17,AAACTGCC,0.15
18,CGTTCAGA,-0.0653
19,AGTACAAA,0.107
20,CGGCGATA,0.0354
21,CAACACTG,0.018
22,CGCTACCC,-0.0363
23,AGTATCAC,0.015
24,GATCTTCC,-0.152
25,AATCACGG,0.0746

row,Sequence,PBM E-score
1,GTCCAGGA,-0.195
2,GCATTTCC,0.171
3,TTCACCAA,0.0895
4,CCGACTAG,0.0018
5,AAATTTAT,0.263
6,CTTAATGA,-0.0221
7,AGCGGCAT,0.132
8,GACGATAA,0.051
9,CCCGTCAC,0.0322
10,ATCGATGC,0.0636
11,AGAAGCCA,0.0744
12,ATGAGGAG,-0.258
13,GGATTGAC,-0.107
14,AGCCGTGC,-0.287
15,ACTTAATA,0.189
16,CAAAGCTA,-0.077
17,ACGCCAAA,0.0442
18,CCGCGAAA,0.142
19,AGAATCGC,-0.0927
20,CACTATGC,-0.0894
21,AACACTAC,0.139
22,CGGCACAG,-0.103
23,GAGATTTA,0.0215
24,GTCGTACA,-0.151
25,ATGCGGAA,0.107

row,Sequence,PBM E-score
1,CCACACGG,-0.173
2,AGCATCCT,-0.126
3,AGACATCT,-0.0331
4,GATTCCCA,0.051
5,AAGCGTTC,-0.0611
6,AATAAAAT,0.183
7,ATCTCCAC,-0.162
8,GCCTGGCA,-0.11
9,GGTGTAGA,0.0598
10,AGCACCGG,0.0797
11,GCAACAAC,-0.0707
12,CGAAATAA,0.131
13,TCACTTCA,-0.0724
14,ATGCAATA,0.0597
15,CGAATTCC,-0.0287
16,AGTCCCAC,-0.133
17,AAAGCTTA,0.0681
18,ACAACCAA,0.0252
19,GAGCATAC,-0.118
20,TCAGCGCA,0.0912
21,GATGCGCA,-0.031
22,GGCGGTAC,0.157
23,ATGTGTGG,0.0515
24,AGGTTTGA,0.0835
25,AAGAGGAA,0.0753

row,Sequence,PBM E-score
1,ACATATTA,0.193
2,CTGGTAAG,-0.00524
3,ACTCGTTA,-0.243
4,AAACTAAC,0.259
5,ATTAGTCC,-0.0349
6,AAGACACC,-0.00469
7,AGACAACA,-0.193
8,TCTCTCAA,0.0783
9,ACAAATAT,0.231
10,GGAGCGTA,0.083
11,CGGGGCAA,-0.0685
12,CCCGTACG,-0.163
13,ACGACTGG,-0.0592
14,CCTGCCTC,-0.0655
15,CCTTCAAC,0.0592
16,ACACGAAC,-0.00019
17,CGTTTCAC,0.453
18,CACTAACA,0.0628
19,ATCGTCAT,0.215
20,TCAGCCCA,-0.0557
21,CATCACTC,-0.116
22,AGTGAGCC,-0.0896
23,GATCAAAC,0.179
24,AGTTGACG,0.019
25,GAAGCCTA,0.018

row,Sequence,PBM E-score
1,CTGTCACC,-0.114
2,CTTTAAAG,-0.0155
3,CATGTCAG,-0.053
4,GCTTGGCC,-0.0163
5,CTAGAATC,0.00493
6,AATAGTCC,-0.124
7,GAACCCCC,-0.374
8,CCCTCAGA,0.0505
9,ATGCCTCC,-0.0978
10,GGGAGGAC,0.0558
11,CGGACACA,-0.0398
12,ACCGAAGT,-0.0577
13,AGTAAACC,0.026
14,CGACGTCA,-0.146
15,CAATTAAA,0.23
16,CACGGACG,-0.0618
17,CGCTTGCC,-0.062
18,TTAGAGAA,-0.105
19,CAGGATCC,0.00474
20,AATTTCCT,0.0427
21,AGACTATA,0.1
22,CCGGTCAG,0.0143
23,ATCCGGTC,-0.0391
24,GTCCATAA,-0.172
25,AATATCCT,0.114

row,Sequence,PBM E-score
1,CATCTAAA,0.124
2,AAATGCCT,0.025
3,GACATGTA,-0.0417
4,ACTGCAAC,-0.0527
5,GCCTAGCA,-0.254
6,GCCGAAGA,-0.106
7,GGGGCAAA,0.114
8,TGCCTAAA,0.0544
9,CAACGCTG,0.0654
10,AGCGTTTA,-0.122
11,CGCTGCCG,-0.0077
12,TAACTAAA,0.245
13,GACGGGCC,-0.203
14,CCGCGGCC,0.174
15,ACGTCTTA,-0.0959
16,AGAATCTG,-0.0532
17,GCTAAAAA,0.17
18,CACGCATA,-0.158
19,CAGAGTAC,-0.127
20,GCGCATAA,-0.0755
21,ATCTTACC,-0.00834
22,GCATAGGA,-0.135
